From the supplement of paper PMC12217912
This is one part of the list. The full chains were built here from the parent and the listed change. Inactive controls read about 0.05.

B1: TEV protease; numbered along this chain (parent)
chain: MGESLFKGPRDYNPISSSICHLTNESDGHTTSLYGIGFGPFIITNKHLFRRNNGTLVVQSLHGVFKVKDTTTLQQHLVDGRDMIIIRMPKDFPPFPQKLKFREPQREERICLVTTNFQTKSMSSMVSDTSCTFPSGDGIFWKHWIQTKDGQCGSPLVSTRDGFIVGIHSASNFTNTNNYFTSVPKNFMELLTNQEAQQWVSGWRLNADSVLWGGHKVFMVKPEEPFQPVKEATQL

Variants of: B1
Experiment: raw area under fraction-flipped curve 0-4 h after induction (AUC4h, not background-subtracted), DNA-recorder readout of cleavage of the substrate (dimensionless); higher = more cleavage of the substrate by the protease variant
Details: temperature: 34 °C; time window: 0-4 h after rhamnose induction
Method: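 In vivo DNA recorder in E. coli TOP10(DE3) ΔrhaA at 34 °C. Each TEVp single-site mutant (parent TEVp 0) is paired with a single-site variant of the 7-mer TEVs (canonical ENLYFQ|S). The substrate sits between flexible linkers in a Bxb1-sfGFP-TEVs-SsrA fusion, so cleavage stabilises Bxb1 and speeds flipping of a recombination array, read by NGS. The value is the raw area under the fraction-flipped curve over 0-4 h after rhamnose induction (AUC4h), with ≥20 reads per time point. It is not background-subtracted; inactive controls average about 0.047.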
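Also: Bxb1 expression induced with 0.2% (w/v) L-rhamnose at OD600 near 0.5, cultures sampled hourly, flipped fraction per protease–substrate barcode pair counted by paired-end Illumina sequencing.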

Variant	area with substrate ENLYAQS	area with substrate ENLYCQS	area with substrate ENLYDQS	area with substrate ENLYEQS	area with substrate ENLYGQS	area with substrate ENLYHQS	area with substrate ENLYIQS	area with substrate ENLYKQS	area with substrate ENLYMQS	area with substrate ENLYNQS	area with substrate ENLYPQS	area with substrate ENLYQQS	area with substrate ENLYRQS	area with substrate ENLYSQS	area with substrate ENLYTQS	area with substrate ENLYVQS	area with substrate ENLYWQS	area with substrate ENLYLQS	area with substrate ENLYYQS
MGESLFKGPRDYNPISSSICHLTNESDGHTTSLYGIGFGPFIITNKHLFRRNNGTLVVQSLHGVFKVKDTTTLQQHLVDGRDMIIIRMPKDFPPFPQKLKFREPQREERICLVTTNFQTKSMSSMVSDTSCTFPSGDGIFWKHWIQTKDGQCGSPLVSTRDGFIVGIHSASNFTNTNNYFTSVPKNFMELLTNQEAQQWVSGWRLNADSVLWAGHKVFMVKPEEPFQPVKEATQL [G213A]	0.0615	0.0441	0.0696	0.0581	0.0644	0.0616	0.0747	0.0333	0.0518	0.0612	0.0526	0.0603	0.0635	0.0622	0.0623	0.0781	0.0578	–	–
MGESLFKGPRDYNPISSSICHLTNESDGHTTSLYGIGFGPFIITNKHLFRRNNGTLVVQSLHGVFKVKDTTTLQQHLVDGRDMIIIRMPKDFPPFPQKLKFREPQREERICLVTTNFQTKSMSSMVSDTSCTFPSGDGIFWKHWIQTKDGQCGSPLVSTRDGFIVGIHSASNFTNTNNYFTSVPKNFMELLTNQEAQQWVSGWRLNADSVLWYGHKVFMVKPEEPFQPVKEATQL [G213Y]	0.0693	–	0.0737	–	0.0432	0.0515	–	0.058	–	0.0651	0.0594	0.0517	0.0714	0.057	–	0.0353	0.0496	0.0582	0.0561
MGESLFKGPRDYNPISSSICHLTNESDGHTTSLYGIGFGPFIITNKHLFRRNNGTLVVQSLHGVFKVKDTTTLQQHLVDGRDMIIIRMPKDFPPFPQKLKFREPQREERICLVTTNFQTKSMSSMVSDTSCTFPSGDGIFWKHWIQTKDGQCGSPLVSTRDGFIVGIHSASNFTNTNNYFTSVPKNFMELLTNQEAQQWVSGWRLNADSVLWGVHKVFMVKPEEPFQPVKEATQL [G214V]	0.0697	–	0.065	0.0572	0.0538	–	0.0627	0.0528	0.059	0.0622	–	0.0681	0.0499	–	0.0751	0.104	0.0662	–	–
MGESLFKGPRDYNPISSSICHLTNESDGHTTSLYGIGFGPFIITNKHLFRRNNGTLVVQSLHGVFKVKDTTTLQQHLVDGRDMIIIRMPKDFPPFPQKLKFREPQREERICLVTTNFQTKSMSSMVSDTSCTFPSGDGIFWKHWIQTKDGQCGSPLVSTRDGFIVGIHSASNFTNTNNYFTSVPKNFMELLTNQEAQQWVSGWRLNADSVLWGGGKVFMVKPEEPFQPVKEATQL [H215G]	0.0428	–	0.0622	0.07	0.0623	–	0.0674	–	0.0534	0.0593	0.0581	0.0613	0.0622	0.058	0.0566	0.0631	0.0662	0.0911	0.0546
MGESLFKGPRDYNPISSSICHLTNESDGHTTSLYGIGFGPFIITNKHLFRRNNGTLVVQSLHGVFKVKDTTTLQQHLVDGRDMIIIRMPKDFPPFPQKLKFREPQREERICLVTTNFQTKSMSSMVSDTSCTFPSGDGIFWKHWIQTKDGQCGSPLVSTRDGFIVGIHSASNFTNTNNYFTSVPKNFMELLTNQEAQQWVSGWRLNADSVLWGGHKHFMVKPEEPFQPVKEATQL [V217H]	0.0111	–	0.0647	0.0907	0.0625	0.0583	0.0482	0.0588	0.0849	–	0.0661	0.056	0.0578	0.0615	–	–	0.0485	0.0409	0.0544
MGESLFKGPRDYNPISSSICHLTNESDGHTTSLYGIGFGPFIITNKHLFRRNNGTLVVQSLHGVFKVKDTTTLQQHLVDGRDMIIIRMPKDFPPFPQKLKFREPQREERICLVTTNFQTKSMSSMVSDTSCTFPSGDGIFWKHWIQTKDGQCGSPLVSTRDGFIVGIHSASNFTNTNNYFTSVPKNFMELLTNQEAQQWVSGWRLNADSVLWGGHKNFMVKPEEPFQPVKEATQL [V217N]	0.0453	0.0699	0.0568	–	0.0538	0.0589	0.0639	0.0664	0.0504	0.0807	0.0545	0.0714	0.0648	0.058	0.0511	0.05	–	0.0593	0.0603
MGESLFKGPRDYNPISSSICHLTNESDGHTTSLYGIGFGPFIITNKHLFRRNNGTLVVQSLHGVFKVKDTTTLQQHLVDGRDMIIIRMPKDFPPFPQKLKFREPQREERICLVTTNFQTKSMSSMVSDTSCTFPSGDGIFWKHWIQTKDGQCGSPLVSTRDGFIVGIHSASNFTNTNNYFTSVPKNFMELLTNQEAQQWVSGWRLNADSVLWGGHKVGMVKPEEPFQPVKEATQL [F218G]	0.0663	0.0608	0.0659	0.0639	–	0.061	0.0653	–	–	0.0535	–	–	0.0639	0.0581	0.0617	0.0818	–	0.0538	–
MGESLFKGPRDYNPISSSICHLTNESDGHTTSLYGIGFGPFIITNKHLFRRNNGTLVVQSLHGVFKVKDTTTLQQHLVDGRDMIIIRMPKDFPPFPQKLKFREPQREERICLVTTNFQTKSMSSMVSDTSCTFPSGDGIFWKHWIQTKDGQCGSPLVSTRDGFIVGIHSASNFTNTNNYFTSVPKNFMELLTNQEAQQWVSGWRLNADSVLWGGHKVSMVKPEEPFQPVKEATQL [F218S]	0.0958	–	–	0.0617	0.065	0.07	0.0906	0.0369	–	0.0576	0.0644	0.0686	0.0546	0.0673	–	–	0.0665	0.0773	0.0692
